Measurements reported in a collection of fitness landscapes (doi:10.1016/j.celrep.2020.107928).
Whole data set: some 81,000 sequences, median “one-hybrid fitness for binding parS DNA” near -0.17, cut for the highest 2% near 0.51. The list shows a part of the results.

B1: Caulobacter ParB omega fusion; a variant is named by its letters at X, in order, B8GW30 (parent)
chain: MESVVVGEPGMSEGRRGLGRGLSALLGEVDAAPAQAPGEQLGGSREAPIEILQRNPDQPRRTFREEDLEDLSNSIREKGVLQPILVRPSPDTAGEYQIVAGERAWRAAQRAGLKTVPIMVRELDDLAVLEIGIIENVQRADLNVLEEALSYKVLMEKFERTQENIAQTIGKSXSHVANXMRLLXLPDEVQSYLVSGELTAXHARAIAAAADPVALAKQIIEGGLSVRETEALARKAPNLSAGKSKGGRPPRVKDTDTQALESDLSSVLGLDVSIDHRGSTGTLTITYATLEQLDDLCNRLTRGI

Variants of: B1
Assay: one-hybrid fitness for binding parS DNA (scaled: cognate 1, non-cognate 0); higher = stronger binding
Conditions: with parS DNA site
In short: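 The reporter was HIS3, with the binding site 19 bp from the promoter, in E. coli USO used for bacterial one-hybrid selection of Caulobacter ParB libraries with four specificity codons randomised. Growth was on M9 lacking histidine, with 0.1 mM IPTG and 5 mM 3-AT, for 48 hours at 37°C. Illumina sequencing covered plasmids before and after selection; three replicate libraries were pooled and variants with under 10 reads dropped. A fitness score is the log change in variant-to-wild-type read ratio, rescaled to the cognate and non-cognate references.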

one-hybrid fitness for binding parS DNA, 0.25:
RFRF

one-hybrid fitness for binding parS DNA, 0.231:
RIHW

one-hybrid fitness for binding parS DNA, 0.625:
RTPC

one-hybrid fitness for binding parS DNA, 0.812:
RRRY

one-hybrid fitness for binding parS DNA, 0.592:
RLHA

one-hybrid fitness for binding parS DNA, ≤ 0.2:
YNDS
MVYR
PNIV
PPAA
SDKT
GAWC
GTTH
CGVM
SQYE
KSRW
HHAC
ARCG
AQLG
HFRR
YSPK
KRNL
WDGA
PYNC
KETG
YYYT
IRGM
NPLN
QKGS
DAHT
LLPE
RWDP
QVAG
KVPG
CTKM
WCES
NSQW
TCDL
GITA
SLYV
DPSF
THRY
DPYC
TEDF
LKRY
ARQK
CPDH
VILL
QRRG
PRFF
NTIG
WKRF
RCSI
VNDG
RVWK
EMRI
QIPP
NDMA
VFDR
NCNI
LTPC
SSCT
GTST
QYGW
AAMP
GWNV
GIQG
KTVC
EEGG
CDLE
PCHR
TRKI
TEPM
IVKT
MSMV
QMTW
DKRS
LMGY
RFVV
DTMR
SCMF
CIPS
QAQH
DTTK
VAYL
KGFW
PHIT
AKKW
CMIR
KSNW
YYWF
DAWY
QHTI
CLCW
GHRY
RYYR
TAVL
RVKK
VRVS
HLYT
VRNT
MASD
NYCV
SPLG
CEKV
HTYD
VYSL
DSIE
VNPM
DWFR
CTKA
VGFF
SEKT
VHKY
CSSD
VRNA
ATHF
LRGY
TNLI
PTQC
YVHC
MADN
LPES
YTLF
TLMW
QFCY
AATK
CWAL
SGLW
IGSA
TRQH
LSFE
ETQC
KPSV
SRDY
YVWS
YAHY
PKHV
TRVN
GDGS
DTNC
QCCM
QMHA
WIPG
TDHT
CPMN
YINH
CRHL
HFVL
YLWS
RGGN
QCVA
PKYC
KATC
AEKN
HINQ
EMGT
QTPP
GFCR
RECT
QLLR
VRVH
YGIS
DVAE
ATMV
RHKD
EQPV
KKNC
QCFS
IVES
MNLN
VNCV
GYWS
RFQP
PHTT
QYVR
WTTV
RGLH
SGYI
VENT
CGQS
AFNV
SVVS
LITV
SSYC
NIKR
AEDG
QMPP
YKYL
LFDR
LGGF
WSNE
WMLT
CAVR
PPMI
SINY
YHQS
HNHT
IRNQ
QCSV
QVSK
QRTF
YYNN
PQQY
ILVG
QVVT
EVCS
TLPY
HYKK
DIII
WIFS
PPFL
SIMP
QWPR
QETG
RLDP
QKSE
YTNG
SCKE
SNRT
MPQI
SCNS
QTLM
THYT
KLPA
CWKT
IPER
WYPQ
TAPL
QCVM
IMRT
MTYR
GQCR
SEHS
ELIS
TVRC
GHRK
PQFG
YDKN
KMFS
LCFS
TFLR
NHNY
VALF
SRPC
NLDT
SPRM
VRTR
GSVS
THWR
GKAK
KWPI
SPEL
VVMC
EDNS
IVLT
YVHA
ILPP
PHVK
AYLE
HQCR
MPLR
VFSL
KMWR
HYLC
QPAP
ASID
HTYV
YAPL
GWDR
QLHS
HEIV
QNVM
KPHG
ITDR
WTML
PNPR
NFLR
IIKS
NTEG
SLWA
KRIN
GDRK
GRKK
VAKG
CPIG
TNNV
GHRS
QIGC
MKLG
FTEG
TECF
CSGP
FNST
WILE
ISLY
CRKI
MTQG
LDFT
GYNM
TLRC
NKDG

one-hybrid fitness for binding parS DNA, 0.375:
RYRN

one-hybrid fitness for binding parS DNA, 0.484:
RIAY

one-hybrid fitness for binding parS DNA, 0.565:
RVGA

one-hybrid fitness for binding parS DNA, 0.94:
RNRG

one-hybrid fitness for binding parS DNA, 1:
RSHS
